Molecular target: the molecule itself
Assay: mass photometry

B1: Human recombinant fibroblast activation protein alpha (enzyme)
chain: not shown
modifications: glycosylated (NAG modelled in the cryo-EM structures)
Q: B1 was tested. Which “stoichiometry N” value did it give?
A: The value was 2.
